Measurements reported in patent US20110104143A1 (UAB RESEARCH FOUNDATION, published 2011).

Molecular target: T1, His-tagged full-length DDX3 (amino acids 1-662) (human, UniProt O00571 1-662)
T1 construct: Expressed in MDA231, HEK293A or NIH3T3 cells by transfection; also called recombinant DDX3; wild-type DDX3; not shown: N-terminal 6-His tag from the pcDNA3.1-His vector
Experiment: co-immunoprecipitation, co-transfected 3T3 cells

B1: Mutant DR5 with a truncation of […] (D7) (receptor)
chain: not shown
notes: Internal deletion; otherwise whole receptor, expressed in NIH3T3 cells; also called […]
B1: no binding.
